Type in all cases: toxicity, cell-based
The test system of one series is U2OS. Description: Multiplex assay against U2OS. To be noted: human. The gist of the method:
(§1)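 Imaging took place on a CQ1 microscope at 37°C and 5% CO2 once compound had been added to live cells stained at seeding with Hoechst33342, BioTracker Green Microtubule Cytoskeleton Dye, MitoTracker Red and Annexin V Alexa Fluor 680. CellPathfinder machine-learning gating classed cells as Hoechst high-intensity objects or normal cells, classed normal cells as having healthy, pyknosed or fragmented nuclei, and classed pyknosed cells as mitotic or apoptotic. Tubulin, mitochondrial-mass and membrane-permeability phenotypes are per cents of the healthy-nucleus cells.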

A further series has as its system Fibroblast. The series is described as follows: Multiplex assay against human fibroblast. The gist of the method:
as §1

The test system of the next series is HEK-293T. Description: Multiplex assay against HEK293T. As to conditions: human. The gist of the method:
as §1

The mark [1] stands for this setting: 12 h, 1 µM, compound concentration 1 uM.
Setting [2] is: 24 h, 1 µM, compound concentration 1 uM.
[3] abbreviates: 48 h, 1 µM, compound concentration 1 uM.
The mark [4] stands for this setting: 48 h, 10 µM, compound concentration 10 uM.
Setting [5] is: 24 h, 10 µM, compound concentration 10 uM.
Setting [6] is: 12 h, 10 µM, compound concentration 10 uM.

A number of entries come with more than one value. The list is limited to them. An entry can have further records. Values given together are repeats (runs, samples, wells, individuals or studies).

For the molecule `Cl.Cl.N#Cc1ccc(O[C@@H]2c3ccccc3C[C@H]2N2CCC[C@@H](N)C2)c(Cl)c1`, the “Population Mitochondria Different-Phenotype (%)” value in the series with U2OS (setting [1]) is 1.91% and 57.66%; in the series with U2OS (setting [2]), 1.94% and 76.99%; with U2OS (setting [3]) it was 1.22% and 57.66%. Also, the “Population Membrane Permeable-Phenotype (%)” value in the series with U2OS (setting [3]) was 3.06% and 29.73%. In addition, the “Population Tubulin-Different-Phenotype (%)” value in the series with U2OS (setting [3]) was 12.65% and 66.67%; in the series with HEK-293T (setting [3]), 3.04% and 89.36%. Moreover, the “Total Cell Count” value in the series on U2OS (setting [3]) was 614 and 175; in the series on HEK-293T (setting [2]) it was 506 and 111; in the series with HEK-293T (setting [3]), 942 and 118. Besides, the “Population Mitotic Cells (%)” value with U2OS (setting [4]) is 26.71% and 8.79%. Moreover, the “Population Apoptotic (%)” value is 2% and 22.22% in the series with Fibroblast (setting [2]); 9.38% and 33.87% in the series on HEK-293T (setting [3]). Also, the “Population Pyknosed Nuclei (%)” value is 30.86% and 8.78% in the series with Fibroblast (setting [2]); 13.6% and 52.54% in the series with HEK-293T (setting [3]). For the same molecule, in the series with Fibroblast (setting [4]), the “Population Fragmented Nuclei (%)” value was 20.69% and 6.77%. The “Population Healthy Nuclei (%)” value in the series with HEK-293T (setting [1]) is 50.59% and 8.77%; in the series with HEK-293T (setting [2]), 68.32% and 14.41%; in the series with HEK-293T (setting [5]), 37.11% and 7.91%.
Consider `c1ccc2nc(N3CCNCC3)ccc2c1` [QUIPAZINE], for which the “Population Mitochondria Different-Phenotype (%)” value in the series on U2OS (setting [1]) is 0.55% and 10.69%; in the series on Fibroblast (setting [6]), 2.78% and 13.73%; in the series on Fibroblast (setting [3]), 12.09% and 1.54%. The “Total Cell Count” value in the series with U2OS (setting [3]) is 1135 and 353; with HEK-293T (setting [2]), 610 and 172; in the series on HEK-293T (setting [5]), 492 and 131; in the series with HEK-293T (setting [3]), 1358 and 200; in the series with HEK-293T (setting [4]), 1100 and 141. In addition, the “Population Apoptotic (%)” value with Fibroblast (setting [6]) is 5.26% and 25.71%; in the series on HEK-293T (setting [3]), 4.19% and 18.84%. In addition, the “Population Tubulin-Different-Phenotype (%)” value in the series on Fibroblast (setting [4]) was 8.81% and 27.14%; in the series with HEK-293T (setting [1]) it was 2.07% and 25.93%; with HEK-293T (setting [6]) it was 7.19% and 28.57%; with HEK-293T (setting [3]), 1.59% and 35.38%; in the series on HEK-293T (setting [4]) it was 1.88% and 49.45%. In addition, in the series on HEK-293T (setting [6]), the “Population Healthy Nuclei (%)” value is 52.04% and 16.54%. The “Population Pyknosed Nuclei (%)” value in the series on HEK-293T (setting [4]) was 10% and 34.04%.
Regarding `S=c1[nH]nc(-c2cccs2)n1-c1ccccc1`, the “Total Cell Count” value with U2OS (setting [3]) was 1053 and 318; in the series on U2OS (setting [4]) it was 971 and 314; in the series on HEK-293T (setting [5]) it was 505 and 138; with HEK-293T (setting [3]) it was 1349 and 208; in the series with HEK-293T (setting [4]), 1220 and 163. Besides, the “Population Fragmented Nuclei (%)” value with Fibroblast (setting [6]) is 18.22% and 5.29%. For the same molecule, the “Population Apoptotic (%)” value is 6.45% and 23.81% with Fibroblast (setting [2]); 5.93% and 22.39% in the series with HEK-293T (setting [3]). For the same molecule, the “Population Tubulin-Different-Phenotype (%)” value with Fibroblast (setting [3]) was 2.31% and 17.65%; in the series on Fibroblast (setting [4]), 6.44% and 21.26%; with HEK-293T (setting [1]) it was 7.64% and 43.48%; in the series with HEK-293T (setting [3]) it was 1.78% and 46.04%; in the series on HEK-293T (setting [4]) it was 1.32% and 29.13%. Further, the “Population Healthy Nuclei (%)” value in the series on HEK-293T (setting [1]) is 53.58% and 14.84%; in the series with HEK-293T (setting [6]), 58.88% and 16.9%; in the series on HEK-293T (setting [2]), 72.88% and 24.18%; in the series on HEK-293T (setting [5]), 75.05% and 24.64%. Also, the “Population Mitochondria Different-Phenotype (%)” value in the series with HEK-293T (setting [6]) was 40.7% and 12.5%. Further, the “Population Pyknosed Nuclei (%)” value in the series on HEK-293T (setting [5]) was 23.17% and 72.46%; in the series on HEK-293T (setting [3]), 10.01% and 32.21%; in the series with HEK-293T (setting [4]), 10.33% and 33.13%.
Take `C=C(C)[C@H]1CN[C@H](C(=O)O)[C@H]1CC(=O)O` [KAINIC ACID]: the “Total Cell Count” value is 1248 and 368 with U2OS (setting [3]); 491 and 161 in the series with HEK-293T (setting [2]); 583 and 191 with HEK-293T (setting [5]); 1348 and 255 with HEK-293T (setting [3]); 1260 and 268 in the series with HEK-293T (setting [4]). In addition, the “Population Apoptotic (%)” value with Fibroblast (setting [1]) was 6.06% and 27.27%. Besides, the “Population Tubulin-Different-Phenotype (%)” value in the series with Fibroblast (setting [2]) is 5.43% and 17.07%; in the series on Fibroblast (setting [3]) it was 1.79% and 15.18%; with Fibroblast (setting [4]), 2.46% and 17.33%; with HEK-293T (setting [1]), 5.02% and 17.14%; in the series on HEK-293T (setting [6]), 1.61% and 42.42%; in the series on HEK-293T (setting [3]) it was 1.04% and 22.53%. Further, the “Population Tubulin-Different-Phenotype (%)” value in the series on HEK-293T (setting [4]) is 0.96% and 23.5%. Besides, in the series with Fibroblast (setting [4]), the “Population Mitochondria Different-Phenotype (%)” value was 10.84% and 0.44%. Moreover, the “Population Healthy Nuclei (%)” value with HEK-293T (setting [6]) is 64.75% and 21.02%. For the same molecule, the “Population Pyknosed Nuclei (%)” value in the series with HEK-293T (setting [6]) is 22.98% and 76.43%; in the series with HEK-293T (setting [5]), 12.86% and 59.16%; with HEK-293T (setting [3]), 8.02% and 25.88%; in the series on HEK-293T (setting [4]), 9.84% and 30.08%.
For `COc1cc2ncnc(Nc3ccc(Oc4ccccc4)cc3C)c2cc1OC.Cl`, the “Total Cell Count” value in the series with U2OS (setting [1]) is 481 and 159; in the series with U2OS (setting [2]) it was 672 and 210; in the series with U2OS (setting [3]) it was 1278 and 342; in the series on U2OS (setting [4]), 759 and 231; with HEK-293T (setting [2]) it was 644 and 161; with HEK-293T (setting [3]) it was 1387 and 196. Further, the “Total Cell Count” value with HEK-293T (setting [4]) was 770 and 197. Further, the “Population Mitochondria Different-Phenotype (%)” value is 1.01% and 41.07% in the series with U2OS (setting [6]); 0.86% and 43.22% in the series on U2OS (setting [5]); 1.17% and 23.3% in the series on U2OS (setting [4]). Also, the “Population Apoptotic (%)” value in the series on Fibroblast (setting [5]) was 4.35% and 24%; with HEK-293T (setting [3]), 7.78% and 26.32%. The “Population Healthy Nuclei (%)” value in the series on HEK-293T (setting [6]) was 46.03% and 10.27%; in the series on HEK-293T (setting [5]), 67.56% and 12.34%. Further, the “Population Tubulin-Different-Phenotype (%)” value is 11.31% and 46.67% in the series on HEK-293T (setting [6]); 23.51% and 5.26% in the series with HEK-293T (setting [5]); 2.03% and 28.89% in the series with HEK-293T (setting [3]); 3.87% and 17.39% in the series with HEK-293T (setting [4]). In the series on HEK-293T (setting [2]), the “Population Pyknosed Nuclei (%)” value is 19.1% and 59.01%.
For `CN1CCN2c3ncccc3Cc3ccccc3C2C1` (configuration not stated) [MIRTAZAPINE], the “Total Cell Count” value in the series on U2OS (setting [1]) is 301 and 81; with U2OS (setting [6]), 266 and 83; in the series with U2OS (setting [2]) it was 340 and 99; in the series on U2OS (setting [3]), 479 and 132. For the same molecule, the “Population Pyknosed Nuclei (%)” value was 10% and 32% in the series on Fibroblast (setting [6]); 7% and 23% in the series with Fibroblast (setting [5]). Further, the “Population Fragmented Nuclei (%)” value with Fibroblast (setting [2]) was 7% and 26%.
For the molecule `CC(C)(C)c1ccc(S(=O)(=O)Nc2ccc(Cl)cc2C(=O)c2cc[n+]([O-])cc2)cc1` [VERCIRNON], the “Population Membrane Permeable-Phenotype (%)” value was 3% and 15% with U2OS (setting [6]); 1% and 13% with U2OS (setting [5]); 4% and 21% in the series with Fibroblast (setting [5]); 1% and 16% in the series with Fibroblast (setting [4]). The “Population Tubulin-Different-Phenotype (%)” value in the series on U2OS (setting [6]) is 1% and 15%; in the series with U2OS (setting [5]) it was 1% and 15%.
As to `CC(C)c1noc(N2CCC(COc3ccc(-c4ccc(S(C)(=O)=O)cc4)nc3)CC2)n1` [GSK-1292263], the “Population Mitotic Cells (%)” value in the series with U2OS (setting [1]) was 27% and 0%; in the series with U2OS (setting [5]), 7% and 33%. For the same molecule, in the series with Fibroblast (setting [6]), the “Population Fragmented Nuclei (%)” value is 8% and 26%. In addition, in the series with Fibroblast (setting [3]), the “Population Pyknosed Nuclei (%)” value is 6% and 24%.
For the molecule `CCc1nn2c(C)cc(C)nc2c1Cc1ccc(-c2nnc(C3CCNCC3)o2)cc1`, in the series on U2OS (setting [1]), the “Population Fragmented Nuclei (%)” value is 28% and 9%; the “Population Mitotic Cells (%)” value is 57% and 14%. Besides, in the series with U2OS (setting [5]), the “Population Tubulin-Different-Phenotype (%)” value is 7% and 28%. Further, the “Population Tubulin-Different-Phenotype (%)” value in the series with U2OS (setting [4]) was 3% and 18%. For the same molecule, the “Population Apoptotic (%)” value in the series on Fibroblast (setting [6]) was 51% and 14%. For the same molecule, the “Population Mitochondria Different-Phenotype (%)” value with Fibroblast (setting [2]) was 3% and 15%.

(Values after ChEMBL document CHEMBL5724801, “EUbOPEN Chemogenomics Library - Multiplex” (2024).)
